Publication PMC4336329 (PLoS ONE, 2015)
About 14,000 (4.5%) of roughly 310,000 compounds showed an effect of 50% or more. The effect is printed as a negative number. The list shows a part of the results.

These molecules were tested against human ether-à-go-go-related gene (hERG) potassium channel (human, UniProt Q12809) (assay: primary screen, population patch clamp on CHO cells stably expressing hERG).
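Note: peak tail current of the secondary pulse compared with the same well before compound.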

Chain of human ether-à-go-go-related gene (hERG) potassium channel (Q12809 whole entry, looked up): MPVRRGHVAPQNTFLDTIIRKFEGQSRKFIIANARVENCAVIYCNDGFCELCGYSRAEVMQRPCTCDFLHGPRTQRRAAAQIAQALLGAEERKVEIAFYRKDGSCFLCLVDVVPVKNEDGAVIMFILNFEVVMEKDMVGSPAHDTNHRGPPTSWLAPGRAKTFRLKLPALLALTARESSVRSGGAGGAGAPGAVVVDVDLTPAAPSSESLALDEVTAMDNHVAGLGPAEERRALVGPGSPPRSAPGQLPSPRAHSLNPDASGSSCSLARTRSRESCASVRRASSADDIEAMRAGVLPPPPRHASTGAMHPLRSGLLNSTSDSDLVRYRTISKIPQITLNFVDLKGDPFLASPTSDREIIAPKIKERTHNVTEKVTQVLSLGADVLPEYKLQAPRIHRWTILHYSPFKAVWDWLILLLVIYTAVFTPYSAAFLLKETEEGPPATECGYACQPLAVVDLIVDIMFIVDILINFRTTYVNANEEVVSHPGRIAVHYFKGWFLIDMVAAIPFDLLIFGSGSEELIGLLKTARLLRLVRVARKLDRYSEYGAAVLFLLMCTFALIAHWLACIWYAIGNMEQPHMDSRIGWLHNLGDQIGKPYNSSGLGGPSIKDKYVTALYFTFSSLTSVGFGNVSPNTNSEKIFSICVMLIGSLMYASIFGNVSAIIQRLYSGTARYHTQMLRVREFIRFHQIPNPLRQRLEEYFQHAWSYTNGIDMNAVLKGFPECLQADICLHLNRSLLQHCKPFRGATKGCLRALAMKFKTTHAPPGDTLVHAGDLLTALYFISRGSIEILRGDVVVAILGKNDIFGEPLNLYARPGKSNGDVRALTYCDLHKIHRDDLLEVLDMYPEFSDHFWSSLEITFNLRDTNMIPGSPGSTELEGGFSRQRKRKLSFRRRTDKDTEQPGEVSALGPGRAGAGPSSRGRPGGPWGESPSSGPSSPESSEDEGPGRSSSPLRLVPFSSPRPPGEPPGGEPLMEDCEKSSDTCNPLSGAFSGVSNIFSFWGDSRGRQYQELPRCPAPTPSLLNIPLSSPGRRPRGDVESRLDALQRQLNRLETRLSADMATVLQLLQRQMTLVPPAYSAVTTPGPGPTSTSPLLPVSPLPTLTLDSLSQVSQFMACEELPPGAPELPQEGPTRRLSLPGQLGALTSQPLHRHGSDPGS

| Compound | hERG current change (%, negative = inhibition) at 10uM |
| --- | --- |
| COC(=O)c1cccc(C23CC4(C2)[C@H](CN(CC2CCCCC2)[C@@H]4c2ccccc2)C3c2ccccc2)c1 (stereo partly shown) | -2.62% |
| CC(NC(=O)[C@H](C)N1C(=O)N2CCc3c([nH]c4ccccc34)[C@@]2(C)C1=O)c1ccccc1 (stereo partly shown) | -13.2% |
| Cc1ccc(NC(=O)Cc2ccc(Cl)cc2)nc1 | -0.845% |
| COC(=O)C1=C(c2cccc3c2S(=O)(=O)c2ccccc2-3)C[C@@H]2CC[C@H]1N2C(=O)N1CCOCC1 | -28.6% |
| Cc1ccc(C(c2nnnn2CS(=O)(=O)c2ccc(C)cc2)N2CCN(c3ncccn3)CC2)cc1 (stereo not shown) | -0.396% |
| CCc1noc(C)c1C(=O)N1CCN(S(=O)(=O)c2ccc(C)cc2)CC1 | -12.1% |
| COc1ccc(C(=O)Nc2ccc(S(=O)(=O)N3CCc4ccccc43)cc2)cc1 | 14.6% |
| CC1=C(C#N)C(NC(=O)c2ccco2)(C(F)(F)F)C(=O)N1 (stereo not shown) | 6.62% |
| O=C(C1CCCN(c2ncnc3c2nc2n3CCCCC2)C1)N1CCCCC1 (stereo not shown) | -18.2% |
| CN1C(=O)CC(NNC(=O)c2ccc(Cl)cc2)C1=O (stereo not shown) | -2.47% |
| CCSc1cc(N2CCOCC2)nc(-c2ccc(Cl)cc2)n1 | 0.393% |
| O=[N+]([O-])c1ccc(Oc2ccc(-c3cnc4ccccc4n3)cc2[N+](=O)[O-])cc1 | 6.13% |
| O=C(COc1ccccc1Br)c1ccc2c(c1)OCO2 | -20% |
| COc1cc2c(cc1OC)C(C)N(C(=O)c1nccnc1C(=O)O)CC2 (stereo not shown) | 14.3% |
| O=S(=O)(NCC(c1cccnc1)N1CCN(Cc2ccccc2)CC1)c1ccc(F)cc1 (stereo not shown) | -65% |
| COC(=O)C1=C(C)N(CC2CC2)C(=O)N[C@H]1c1ccc(Br)cc1 | -9.4% |
| Cc1cc(NC(=O)COc2ccccc2C)ccc1NC(=O)c1ccco1 | 4.14% |
| Cc1cc(NC(=O)Cn2nc(C(=O)O)c3ccccc3c2=O)ccc1Br | 11.7% |
| COc1ccc(CCNC(=O)Cn2nc(C)c3c(C)n(-c4ccccc4)nc3c2=O)c(OC)c1 | -0.662% |
| Cc1ccc(N(CCC#N)C(=O)COC(=O)c2ccccn2)cc1 | 6.47% |
| COc1ccc(/C=C/C(=O)N2CC(C)OC(C)C2)cc1OC (stereo not shown) | -11% |
| COc1cc2c3cc1Oc1cc(ccc1O)C[C@@H]1c4c(cc(OC)c(O)c4Oc4ccc(cc4)C[C@H]3N(C)CC2)CCN1C | -37% |

| Compound | hERG current change (%, negative = inhibition) at 10uM |
| --- | --- |
| CCCCCCNC(=O)N1C/C=C\C(c2ccc(OC)cc2)N(Cc2ccc(F)cc2)C(=O)C1 (stereo not shown) | -16% |
| Cc1ccc(/C=C/C(=O)OC(C)C(=O)Nc2ncc(Cl)cc2Cl)o1 (stereo not shown) | 7.79% |
| O=C(Cc1ccccc1)NNC(=O)c1ccc(NC(=O)c2ccccc2)cc1 | 22.3% |
| C#CCSc1nnc(-c2ccc([N+](=O)[O-])cc2)o1 | -5.47% |
| Cc1ccc(-c2ccc(=O)n(CCC(=O)N3CCN(Cc4ccccc4)CC3)n2)cc1 | -32.9% |
| CC(C)(C)C(=O)NC(=S)NNC(=O)c1ccc(Cl)cc1Cl | 7.06% |
| Cc1ccc(C(=O)N2CCCC(Nc3ccc(C(C)C)cc3)C2)cn1 (stereo not shown) | 9.22% |
| CCC(=O)Nc1ccccc1C(=O)OCc1ccc(C(=O)c2ccccc2)cc1 | -16.1% |
| CNC(=O)C1CC(=O)N(Cc2ccc3c(c2)OCO3)C(=Nc2ccc(F)cc2)S1 (stereo not shown) | -10.8% |
| O=C(CCSc1ccc(Br)cc1)c1ccc(O)cc1 | 17% |
| COc1ccc(COc2ccsc2C(=O)Nc2ccc(Cl)c(Cl)c2)cc1 | 14.1% |
| CCOc1ccc(NC(=O)CC2CC(C)(C)OC2=O)cc1 (stereo not shown) | -12.8% |
| C/C(=N/O)c1c(O)c(C)c(-c2ccccc2)n(-c2ccccc2)c1=O | 5.97% |
| O=C(C1COc2ccccc2O1)N1CCN(S(=O)(=O)c2cc(F)ccc2F)CC1 (stereo not shown) | -27.9% |
| COc1cc(/C=N/N2CCN(c3ccccc3OC)CC2)ccc1O | -2.87% |
| CCCCCCn1c(=O)c(C(=O)Nc2ncccc2C)c(O)c2ccccc21 | -0.374% |
| Cc1ccc(CCN2C(=O)CCC2(C)C(=O)NC2CCCC2)cc1 (stereo not shown) | 3.63% |
| CCOc1ccc(NC(=O)COC(=O)c2cc(S(=O)(=O)N3CCCC3)ccc2C)cc1 | -4.88% |
| Clc1ccc(-c2csc(N3CCc4ccccc4C3)n2)cc1 | 14.3% |
| COc1ccccc1N1C(=O)NC(=O)/C(=C\c2cnn(-c3ccccc3)c2)C1=O | 10.8% |
| CCCC(C)NC(=O)CSc1nc2ccc(C)cc2[nH]1 (stereo not shown) | 9.81% |
| CCc1nnc(NC(=O)Cn2nnc(-c3ccccc3F)n2)s1 | 2.36% |

| Compound | hERG current change (%, negative = inhibition) at 10uM |
| --- | --- |
| COc1ccc(N2CCN(C(=S)NC(=O)c3cccs3)CC2)c([N+](=O)[O-])c1 | -47.8% |
| N#CC1=C(N)Nc2nc3ccccc3n2C1c1ccc(Cl)cc1 (stereo not shown) | 2.87% |
| Cn1c(CNC(=O)Nc2ccccc2)nnc1SCc1ccccc1 | -12% |
| CCOc1ccc(NC(=O)CN(C)C(=O)Cc2c(C)nc3ccccc3c2C)cc1OCC | -47% |
| Cc1ccc(S(=O)(=O)N(CC2CO2)c2ccccc2[N+](=O)[O-])cc1 (stereo not shown) | 13.1% |
| COc1ccc(-c2nnc(-c3cc4ccccc4oc3=O)o2)cc1 | 9.2% |
| CC(=O)[C@H]1CC[C@H]2[C@@H]3C=CC4=CC(=O)CC[C@@]4(C)[C@@H]3CC[C@]12C | -4.09% |
| CCc1cccc2c(C(=O)COC(=O)c3ccccc3)c[nH]c12 | 11.7% |
| O=C(c1cccc(OC2CCN(Cc3cc(F)cc(F)c3)CC2)c1)N1CCCC1 | -34.9% |
| Cn1c(SCC(=O)NCc2ccco2)nnc1-c1c[nH]c2ccccc12 | -5.53% |
| CC(=O)c1c(C)n(-c2ccccc2)c2ccc(O)cc12 | 23.2% |
| CC1(C)CC(=O)C(C=NCCN2CCN(C(=O)Cc3ccc(F)cc3)CC2)=C(O)C1 | -23.5% |
| COc1ccc(CC(=O)NCc2csc(-c3cccs3)n2)cc1OC | 3.33% |
| COCCCNC(=O)CSC1=Nc2ccccc2C2=NC(CC(=O)NCc3ccccc3)C(=O)N12 (stereo not shown) | 11.6% |
| CCOc1ccc(C(=O)CCN2CCCCCC2)cc1.Cl | -38.4% |
| COc1ccc(NC(=O)CN(C)CC(=O)Nc2ccc(C)c(S(=O)(=O)N3CCCCC3)c2)cc1 | -27.5% |
| COc1ccc(C(=O)N(C)Cc2cnn(Cc3ccccc3)c2)cc1S(=O)(=O)N1CCOCC1 | -27% |
| O=C(NCc1n[nH]c(=S)n1-c1ccc(Cl)c(Cl)c1)c1cccs1 | 18.1% |
| COc1ccc(OCCOc2ccc(C)nc2[N+](=O)[O-])cc1 | -1.9% |
| CC1CCN(C(=O)Cn2nc(C(F)(F)F)c3c2CCCC3)CC1 | -4.43% |
| Cc1cnc2cc(Cl)c(Cl)cc2n1 | 18.2% |
| COc1ccc(C(=O)Nc2nc(-c3cccs3)c(NC(C)=O)s2)cc1 | 13.1% |

| Compound | hERG current change (%, negative = inhibition) at 10uM |
| --- | --- |
| CC(C)c1ccc(N(CC(=O)NCc2ccco2)C(=O)CCC(=O)Nc2nccs2)cc1 | -10.5% |
| O=C(CC1C(=O)NCCN1CC(c1ccccc1)c1ccccc1)NCCc1cn[nH]c1 (stereo not shown) | -0.649% |
| Cc1ccc(SCCNS(C)(=O)=O)cc1 | 2.86% |
| CCS(=O)(=O)c1ccc(O)c(NC(=O)COc2ccc(OC)cc2)c1 | 1.82% |
| O=C(c1ccco1)N1CCN(C(=O)c2cc3c(=O)oc4ccccc4c3s2)CC1 | -62.9% |
| Nc1nc2n(n1)C(c1cccc(Br)c1)CC(c1ccc(F)cc1)N2 (stereo not shown) | -32.7% |
| CCc1ccccc1N1C(=O)/C(=C/c2ccc(N3CCN(C)CC3)o2)C(=O)NC1=S | 1.18% |
| O=C1CN(C(=S)NC(=O)c2ccc(-c3ccccc3)cc2)CCN1 | 4.57% |
| O=c1c2ccccc2sn1-c1ccc(S(=O)(=O)N2CCCCC2)cc1 | -0.622% |
| CC(=O)Nc1cccc(NC(=O)CSc2nnc(Cc3cccn3C)n2CCc2ccccc2)c1 | -14.9% |
| COc1ccccc1CNC(=O)Cn1cccc1 | 1.51% |
| Fc1cccc(NC(=S)Nc2cccc3ccccc23)c1 | -21.3% |
| O=C(O)CCCCCCCCCCCNC(=O)NC12CC3CC(CC(C3)C1)C2 | 29.7% |
| Cl.OC(COCCC12CC3CC(CC(C3)C1)C2)CN1CCCC1 (stereo not shown) | -30.3% |
| COc1ccc(-n2c(/C=C/c3cccc(F)c3)nc3ccccc3c2=O)c(OC)c1 | 17.9% |
| COCCOC(=O)c1c(N)n(Cc2ccccc2)c2nc3ccccc3nc12 | -36.5% |
| Cc1ccnc(NS(=O)(=O)c2ccc(-n3cccn3)cc2)c1 | 19.1% |
| COc1ccccc1C(=O)NC(=O)COC(=O)CN1C(=O)NC(C)(C)C1=O | 38.2% |
| NC(=O)C1CCN(CC(=O)Nc2cccc(C(=O)Nc3cccc(C(F)(F)F)c3)c2)CC1 | -20.9% |
